The text below walks through data of paper PMC10726135.

The list shows a part of the results. At the low end of the ranking, values are background and their order means little. Measured with an extract: partners may take part in the binding.

This assay deals with T1, HNF4alpha2 (COS-7 nuclear extract) (UniProt P41235).
T1 sequence: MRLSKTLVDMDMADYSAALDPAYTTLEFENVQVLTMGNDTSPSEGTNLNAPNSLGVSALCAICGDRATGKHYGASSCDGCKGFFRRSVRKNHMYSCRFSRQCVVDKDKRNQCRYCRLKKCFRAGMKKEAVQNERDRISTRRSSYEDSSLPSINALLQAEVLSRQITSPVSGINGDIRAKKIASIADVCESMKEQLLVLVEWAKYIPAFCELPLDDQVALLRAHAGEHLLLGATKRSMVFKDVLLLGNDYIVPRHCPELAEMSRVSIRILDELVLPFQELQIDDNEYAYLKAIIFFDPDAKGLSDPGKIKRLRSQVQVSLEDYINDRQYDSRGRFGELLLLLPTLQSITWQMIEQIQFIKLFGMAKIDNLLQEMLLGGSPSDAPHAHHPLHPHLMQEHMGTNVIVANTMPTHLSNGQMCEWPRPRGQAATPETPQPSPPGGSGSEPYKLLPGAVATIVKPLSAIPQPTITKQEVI
The assay is described as follows: protein-binding microarray. Conditions: COS-7 nuclear extract on double-stranded Agilent 4x180k PBM; binding buffer, salt, pH and temperature not given; high values mean tight binding; double strand, one strand shown; sequences stand for … in …GCCTAGGGAGATTAGAGTATCGGTCGA
In the case of CCATGCAAGTTCCCACAGAGCCCACCATGT, the binding signal (log2 normalized intensity) is -1.18. In the case of CCCTTGGTGTTTAAACACATTTTTTTTTTT it was 1.7; in that of CCACTGGTTTGCACACACCAAAGCCCAAGG, -1.08. In the case of TGGGTCGTTGGTGCTCCCCCACCCTGTGTC it was 4.69; in that of AAAGACGCGGAGCGGGGGACCGAGAGCCGC, -0.863. The result for GTCTGAGTGCTCATGATGGGAAGCCTCAGG reads -1.08; that for ATTAAACATCTTGCCCACATTCACACAATC, 0.834.

AGGACAGCCAGGCAGTCGGGAAATTCCAGC: the binding signal (log2 normalized intensity) was -0.944. In the case of CATGTAGTCACATACCTATGCAAACAGCGC it was -0.575; in that of GCGGGCCGGGAGGGGGACGCTTTCTGGCGC, -1.2.

As to TTCTTGAGCTACCGCCTGAACCTTGGATCT, the binding signal (log2 normalized intensity) is 3.35. In the case of GAGACCTGTTCTGTTCCCTGGACTCAGCTC it was 1.43. Regarding TTAGACATGTTTACTTTTGCAAGGTTTGTT, the binding signal (log2 normalized intensity) came out at 1.75. In the case of TCCTTCAAAGATTGTGAGACAAGAGAAGAG it was -1.21; in that of TAAATAAAGTGGTAGCCCACAATCAGTCTG, -0.683; in that of CCACTGTTCTCTCTAGAGAGAACAGATCTT, -0.63.

In the case of AGTCCCTGAGTATTATCTTTTTAATCAATA, the binding signal (log2 normalized intensity) is 0.0567. Take GAGGAATCCCATTCCCTCTAATCTGGGACA: the binding signal (log2 normalized intensity) was -0.632.

CATGGATGACCTCTTTTAGTAACTGACTTT: the binding signal (log2 normalized intensity) was found to be 1.62. The result for AGCTCGCTCAGCTGGTTGCCCCTTTGACCC reads 7.89; that for GGGTGAGTGCATGAATCAACTGTTGTGGAC, 1.67; that for AACGCTAGACACTGGGGACTAGTAGAGTGG, -1.16.

TGTCTTTTCTCCCCTGACTACCAGCCAGTA: the binding signal (log2 normalized intensity) was found to be 1.3.

As for AGGAATCCTGACCAGGGGCCAGCAAGAGGT, the binding signal (log2 normalized intensity) is -1.13. GGAAGGGCTTTATGACCAGTGTGTTGTGCT: the binding signal (log2 normalized intensity) came out at 1.

As to GATGTTGGGAGGAGTGGACTTTGATCTCAG, the binding signal (log2 normalized intensity) worked out at 8.9. In the case of AAAGAGACATCTGGGAACAAGTTCTGCAGA it was -1.21. The result for GGTCCCTGGAGATAATAGTGGCTGAAAGTA reads -1.04. The result for CAGTGAACAAAACATGGATTTTGGAGCCAA reads 0.372. Take GTTAGACTACTTATCTCCAAGACCCTTCAT: the binding signal (log2 normalized intensity) was -0.7. The result for TTTCAATTACAAAGCAACACAATGCATATC reads -0.588. The result for CATCTGCCCAGCAGAGCAGTTTAGAGAAAG reads -1.15; that for ATCTAAGCTGGACTTTGAACTTCATGTGTG, 7.91. As to CCAAAGTCCAAAGTCCAGTCTTATCTGAGA, the binding signal (log2 normalized intensity) was found to be 7.12. In the case of TTATAATCGCAGAATAAACGCTGAAGTCTC it was -0.997; in that of AGGCTGAGCCTAGGAGTTCAATGCTTCAGT, -0.824; in that of TTAGGGGTTAGGGTTAGGGTTAGGGTTACG, 1.29. The result for CCACATTCTCCACTGGGAAGTAGAAGAAAG reads -1.11; that for TTGATCAAAGGTTGGACTGAGGACCACATG, 1.87; that for CCAGAGCCAAAGGGCATATTGACTGCCCCA, 2.24. The result for CTGTTCTGTTCCCTGGACTCAGCTCCCATA reads 1.12. Consider TTATGAGGCCTAACTGGCTTTGTCTGCTCA, for which the binding signal (log2 normalized intensity) was -0.507. In the case of CGAGTCCCTGCTGTGTCACGTACCGGCTAG it was -0.974; in that of GTGTGCTTTGTAGCACTTTGGACCTCCACT, 4.25; in that of GAAGACTTCGCTGGAATGTCACAGGGATTA, -1.01.

Consider GGTCCTACTCACACTCAAGGCAAGAGAGTC, for which the binding signal (log2 normalized intensity) is -1.08. Consider TGAGGCCAGACAGGGGGGCGCCTACGGACG, for which the binding signal (log2 normalized intensity) is -1.23. For the sequence GAAACAGTCACAGTTATCAGACAGAGGAAT, the binding signal (log2 normalized intensity) was -1.16. The result for AACAAATCCAGGCAGGACTCTGTCCTGGGC reads -0.976; that for CCATCAAGGATCAAGGACCTGCTCTGGGGC, -1.07. Take TCTTTCTCCAACTGCTCCTCTTCAACTGAT: the binding signal (log2 normalized intensity) amounted to 0.529. The result for AGATGAAAGCTTCTGCGGAAATAATTGATT reads -1.05.

In the case of AAGACCCAAGGCGTATGAAGCTTTGACCCT, the binding signal (log2 normalized intensity) is 4.42. In the case of GGAGGCACTCATGGTGTTTGCTTTGTGAAG it was 0.486.

TATGATCTTTCATTCCTATTGTCCCATCTC: the binding signal (log2 normalized intensity) came out at 1.24. With AACCAGAGAATCTCTCATTTCAAGGCTGGC, the binding signal (log2 normalized intensity) is -1.12.

With TCTTCCAGTTCATTTCTGTATCCCTGTTAT, the binding signal (log2 normalized intensity) stood at 1.96. With ACGTCAGAACTGTCCTTTAACCTCCCTGCA, the binding signal (log2 normalized intensity) was 1.99.

On to GGGACAGCACTGGCATGCAGCAGGGGAATG, for which the binding signal (log2 normalized intensity) is -1.05. In the case of CCACCCCCTCCACCCCTGCCTTTCATTCTC it was 4.45; in that of GATGAGAAACTTATTGTGAACTGGAGCAAA, -0.765; in that of ATCCCTGCAGCCCACAGCCCGCTGTGCCTG, -1.21. The result for AAATTGCTCAGTGCCTTCTCTAATGACTGA reads -0.941. In the case of TGTCAGACAAACAGACTTCACACTAGAAGA it was -1.14. Consider AGGCTTCTAGAAGAGGTTAAAGACCTTTGG, for which the binding signal (log2 normalized intensity) was determined as 4.01. In the case of CTCCCTGCATTCCATTTCTGCCCCTTGCTC, the binding signal (log2 normalized intensity) is 3.66.

Take ATAAAGCAGGGAGAGTTGCACCCAGGCCGT: the binding signal (log2 normalized intensity) was -1.19. In the case of ACAAGGGTACCAACAGGTCCAAGGTTCAGA it was 3.95; in that of TCAAGGATGTTTATACAGCCTTGGAAGACA, -0.976; in that of CCATAGGCAGCTTCAGGATGAAGGCTGCTG, -1.27.

Consider TCTTTCAGGGTGGGAAAGGAATGTAATGTA, for which the binding signal (log2 normalized intensity) turned out to be 1.43. The result for ATCTTGGGTTAGGCCTTTAGAGGATTTACT reads -0.708.
